Here are results for 47 compounds from PubChem BioAssay AID1508623 (National Center for Advancing Translational Sciences (NCATS), 2021).

In all, about 48,000 compounds went through this assay and about 450 (0.94%) were called active. Another 19% or so got no clear call; they are omitted. Calls come from the whole dose curve; as a rule, active = well fitted inhibition curve with a large enough effect; inconclusive = small, poorly fitted or top-dose-only effect; inactive = no such curve, though single readings can be large or run the other way. The list shows a part of the results.
Potency is the fitted concentration of half-maximal effect.

The experiment in a line: Primary qHTS for Identification of Small Molecule Inhibitors of Huntingtin Promoter Activity. Note: nearly all actives have a fitted effect of over 50% in size. To be noted: HEK293 HTT promoter firefly luciferase reporter (activity 0% = vehicle and -100% = no light), 24 h; series mostly up to 57.5 µM; activity change, negative = inhibition: at the top concentration. In outline: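 Firefly luciferase signal from promoter-reporter HEK293 cells was scaled between vehicle (0%) and zero RLU (-100%). Compounds were tested at final concentrations of up to 57.5 uM over 24 h at 37 degrees C. PTC124 at 50 uM final served as control inhibitor.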
(In general: In qHTS, concentration-response curves come from the screen itself.)
For `COc1cc(Cl)c(C)cc1NC(=O)c1sc2nc(C)cc(C)c2c1N`, the “activity change, negative = inhibition” value is inactive: 3.8%.

Consider `COc1cc(C(=O)N(Cc2cccnc2)c2nc3cc(C)c(C)cc3s2)cc(OC)c1OC`, for which the “activity change, negative = inhibition” value was inactive: -30.6%.

Take `CCOC(=O)COc1ccc(F)cc1C(=O)c1ccn2nc(-c3ccc(C)cc3)cc2n1`: the “activity change, negative = inhibition” value was inactive: -7.67%.

Consider `COc1ccccc1NC(=O)C(Cc1ccccc1)NS(=O)(=O)c1cccc2nsnc12` (configuration not stated), for which the “activity change, negative = inhibition” value was inactive: -36%.

With `COC(=O)c1ccc(Cl)cc1NC(=O)N(Cc1ccc(OC)cc1)C1CCN(C(C)=O)CC1`, the “activity change, negative = inhibition” value is inactive: -10.3%.

On to `COc1ccc(OC)c(NC(=O)CSc2nc3ccccc3c(=O)n2CCC(=O)NC2CCCCC2)c1`, for which the “activity change, negative = inhibition” value was inactive: 9.96%.

For the compound `Cc1ccc(N2CCN(C(=O)NCc3noc4ccc(C)cc34)CC2)c(C)c1`, the “activity change, negative = inhibition” value is inactive: -9.07%.

`Cc1ccccc1C(=O)N(Cc1ccc(N(C)C)cc1)CC1CCCO1` (configuration not stated): the “activity change, negative = inhibition” value was inactive: -0.473%.

For the compound `CC(C)(C)OC(=O)Nc1ccc(-c2cc(C(=O)NCCCCCCC(=O)NO)no2)cc1`, the “activity change, negative = inhibition” value is inactive: -10.7%.

Regarding `COc1ccccc1NC(=O)CSC1=Nc2ccccc2C2=NC(CC(=O)NCc3ccc4c(c3)OCO4)C(=O)N12` (configuration not stated), the “activity change, negative = inhibition” value is inactive: 0%.

On to `CCOC(=O)c1noc2ncnc(NCc3ccccc3OC)c12`, for which the “activity change, negative = inhibition” value is inactive: -12.9%.

As for `COc1ccccc1N=C1SC(C(=O)Nc2ccccc2OC)CC(=O)N1C` (configuration not stated), the “activity change, negative = inhibition” value is inactive: -10.4%.

Regarding `O=C(NCCOCCn1c(=O)oc2ccccc21)Nc1cccc(Cl)c1`, the “activity change, negative = inhibition” value was inactive: -2.91%.

As to `COC(=O)c1ccccc1NC(=O)C1CCCN(c2ncnc3onc(C)c23)C1` (configuration not stated), the “activity change, negative = inhibition” value is inactive: -5.85%.

As for `Cc1ccc(CNC(=O)c2sc3nc4n(c(=O)c3c2C)CCCCC4)cc1`, the “activity change, negative = inhibition” value is inactive: -2.72%.

As for `CC(C)c1ccc(NC(=O)c2ccc3c(O)c(S(=O)(=O)c4ccccc4)c(=O)[nH]c3c2)cc1`, the “activity change, negative = inhibition” value is inactive: 1.3%.

`O=c1c2ccccc2n2c(-c3ccccc3F)nnc2n1CCc1ccccc1`: the “activity change, negative = inhibition” value is inactive: -22.5%.

On to `COc1cc(OC)c(N(C)C(=O)c2cc3c(=O)oc4ccccc4c3s2)cc1Cl`, for which the “activity change, negative = inhibition” value was inactive: -4.02%.

On to `Cc1ccc(-n2nc(C(=O)N(C)Cc3ccccc3)c3c4ccccc4n(C)c3c2=O)cc1`, for which the “activity change, negative = inhibition” value was inactive: -13.2%.

Regarding `Cc1ccc(-n2c(=O)c3c(c4cc(C)ccc4n3C)n(Cc3ccc(F)cc3)c2=O)cc1`, the “activity change, negative = inhibition” value is inactive: 11.2%.

Turning to `CCCCNC(=O)CCn1c(=O)c2cccn2c2cccnc21`, the “activity change, negative = inhibition” value was inactive: 3.9%.

`CCN(C(=O)c1c(C)oc2ncn(CC(C)C)c(=O)c12)c1cccc(Cl)c1`: the “activity change, negative = inhibition” value was inactive: -6.41%.

Regarding `Cc1oc(-c2ccc(C(=O)NCc3ccccc3Cl)cc2)nc1CN1CCc2ccccc21`, the Potency was active: 14.1 µM.

`CCCn1c(CCC(=O)Nc2ccc(C)c(Cl)c2)nc2cccnc21`: the “activity change, negative = inhibition” value was inactive: -37.2%.

For the compound `O=C(CC1N=C2c3ccccc3N=C(SCc3cccc(Cl)c3)N2C1=O)NCCc1ccccc1` (configuration not stated), the “activity change, negative = inhibition” value was inactive: -14.1%.

Consider `CCCS(=O)(=O)N1CC(=O)N(c2ccc(C)cc2C)C(C)(C(=O)NC2CCCCCC2)C1` (configuration not stated), for which the “activity change, negative = inhibition” value was inactive: -1.73%.

Take `O=C(Cn1c(=O)nc(-c2ccccc2)c2cc(Cl)ccc21)NCc1ccc(Cl)cc1`: the “activity change, negative = inhibition” value was inactive: -24%.

For `COc1ccc(CCNS(=O)(=O)c2cc(-c3onc(C)c3C)ccc2OC)cc1OC`, the “activity change, negative = inhibition” value was inactive: -4.19%.

With `CCOc1ccc(CCNC(=O)c2ccc3c(c2)N(Cc2ccccc2F)C(=O)c2ccccc2S3=O)cc1OCC` (configuration not stated), the “activity change, negative = inhibition” value was inactive: -9.97%.

On to `O=C(CCS(=O)(=O)c1cc2c3c(c1)CCN3C(=O)CC2)Nc1cccc(Br)c1`, for which the “activity change, negative = inhibition” value was inactive: -1.67%.

Turning to `CCc1ccc(NC(=O)CSc2nc(=O)n(Cc3ccncc3)c3c2CCC3)cc1`, the “activity change, negative = inhibition” value was inactive: -27.7%.

For the compound `O=C(COCc1cc(-c2ccc3c(c2)OCO3)on1)Nc1cc(C(F)(F)F)ccc1Cl`, the “activity change, negative = inhibition” value is inactive: -2.32%.

In the case of `Cc1cc2c(cc1S(=O)(=O)CCC(=O)N1CCCCC1C)OCC(=O)N2` (configuration not stated), the “activity change, negative = inhibition” value was inactive: -3.24%.

With `CCOC(=O)N1CCc2c(sc(NCc3cccs3)c2C(=O)Nc2ccc(OC)cc2OC)C1`, the Potency is active: 7.94 µM.

For the compound `CCCCN(C)CCNC(=O)CN1C(=O)CSc2ccc(S(=O)(=O)N3CCCCC3)cc21`, the “activity change, negative = inhibition” value was inactive: -1.24%.

Consider `O=c1c(S(=O)(=O)c2ccccc2)cn(Cc2cccc(F)c2)c2cc(N3CCCC3)c(F)cc12`, for which the “activity change, negative = inhibition” value was inactive: -7.96%.

Regarding `Cc1ccc2oc(=O)n(Cc3ccccc3Cl)c2c1`, the “activity change, negative = inhibition” value was inactive: 4.82%.

In the case of `Cc1ccc2oc(-c3cc(NC(=O)c4oc5ccccc5c4C)ccc3Cl)nc2c1`, the “activity change, negative = inhibition” value was inactive: -12.9%.

For `CCc1ccc(OCC(=O)Nc2cc(-c3nc4cc(C)ccc4o3)ccc2C)cc1`, the “activity change, negative = inhibition” value is inactive: -2.16%.

Regarding `CCCNC(=O)C1CCC(CNS(=O)(=O)c2ccc3c(c2)CC(C)N3C(C)=O)CC1` (configuration not stated), the “activity change, negative = inhibition” value is inactive: -14%.

As to `CN(Cc1ccc(F)cc1)S(=O)(=O)c1nnc(NC(=O)c2ccccc2)s1`, the “activity change, negative = inhibition” value is inactive: -10%.

Regarding `Cc1ccc(NC(=O)c2oc3ccccc3c2NC(=O)C23CC4CC(CC(C4)C2)C3)cc1`, the “activity change, negative = inhibition” value is inactive: -11.7%.

Consider `Cc1ccc(C(=O)NCc2ccccc2)cc1NC(=O)c1nsc2ccccc12`, for which the “activity change, negative = inhibition” value was inactive: -0.455%.

`CCOC(=O)c1c(C)[nH]c(C)c1S(=O)(=O)N1CCC(C(=O)Nc2ccc(C)c(N(C)C)c2)CC1`: the “activity change, negative = inhibition” value is inactive: -15.5%.

As to `Cn1cc(C(=O)NCCc2ccccc2)c(=O)c2cc(S(=O)(=O)N3CCCCC3)ccc21`, the “activity change, negative = inhibition” value was inactive: -2.52%.

As to `CCc1ccc(N2C(=O)CN(S(=O)(=O)CC)CC2(C)C(=O)NC2CCCCC2)cc1` (configuration not stated), the “activity change, negative = inhibition” value is inactive: -1.72%.

For `O=C(CNC(=O)c1ccccc1)OCc1cc(=O)n2nc(C3CC3)sc2n1`, the “activity change, negative = inhibition” value is inactive: -13.8%.
